Test results taken from PubChem BioAssay AID485344 (National Center for Advancing Translational Sciences (NCATS), 2010).
Values joined by “and” are separate entries in the source; they are usually repeats but may differ in a detail not shown here. Identical values can stand only once. Screen size: about 340,000 compounds; about 6,900 (2%) were called active. Rule as the data show it: active = inhibition above about 30%; inactive = below that, where a call was filed. Only a part is listed here, and it is no random draw. Entries without a call were filed so in the source.

The molecules below were run against D(2) dopamine receptor (Homo sapiens) (UniProt P14416) (assay: HTS Assay for Allosteric Antagonists of the Human D2 Dopamine Receptor: Primary Screen for Antagonists). Details: HEK293 TREx D2 cells, calcium flux, dopamine EC80; at 10 µM; stronger effect = higher value.
Chain of UniProt P14416 (P14416 whole entry, looked up): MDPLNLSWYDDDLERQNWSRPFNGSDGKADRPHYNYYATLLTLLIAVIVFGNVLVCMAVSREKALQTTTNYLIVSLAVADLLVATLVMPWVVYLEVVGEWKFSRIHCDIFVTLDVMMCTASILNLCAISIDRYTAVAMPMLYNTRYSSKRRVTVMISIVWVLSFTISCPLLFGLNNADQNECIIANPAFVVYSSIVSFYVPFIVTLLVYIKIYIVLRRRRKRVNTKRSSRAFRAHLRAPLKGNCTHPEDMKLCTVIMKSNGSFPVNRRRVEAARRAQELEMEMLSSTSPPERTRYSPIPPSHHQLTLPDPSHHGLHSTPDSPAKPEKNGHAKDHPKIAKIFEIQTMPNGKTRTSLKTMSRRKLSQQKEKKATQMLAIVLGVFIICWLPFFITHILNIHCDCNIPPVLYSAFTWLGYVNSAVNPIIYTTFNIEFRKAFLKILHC
How it was run: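 Read-out: kinetic calcium fluorescence (1 cycle/s) in inducible HEK293 T-REx D2 cells after an EC80 dopamine addition that followed 180 s compound preincubation. Loss of the dopamine response indicates antagonism.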
Also: 0% is about no effect.

Row | Compound | inhibition
1 | O=C(NCCc1ccccc1)c1ccc2c(c1)CCN2S(=O)(=O)c1ccccc1 | 4.62%
2 | CC(C)CSc1ccccc1NC(=O)c1sc2nc(-c3ccncc3)ccc2c1N | 19.6%
3 | O=C(Cn1cc(S(=O)(=O)Cc2ccccc2F)c2ccccc21)NCc1ccccc1Cl | -2.6%
4 | Cc1cc(C)cc(NC(=O)CN2C(=O)CCc3cc(S(=O)(=O)N4CCCCC4)ccc32)c1 | 0.222%
5 | Cc1nn2c(=O)cc(COC(=O)c3ccc(NC(=O)c4cccs4)cc3)nc2s1 | -10%
6 | CCOC(=O)c1c(NC(=O)C(C)Oc2ccc(Cl)c(C)c2)sc2c1CCCC2 (stereo not given) | -8.68%
7 | Cc1ccc(Nc2sc(C(=O)c3ccccc3)c(N)c2S(=O)(=O)c2ccccc2)c(C)c1 | 3.2%
8 | COc1ccc(CCNC(=O)c2c(C)nn(-c3ccc(F)cc3)c2-n2cccc2)c(OC)c1OC | 14.1%
9 | COc1ccccc1N1CCN(C(=O)Cn2c(=O)n3nc(-c4cccc(C)c4)nc3c3ccccc32)CC1 | -23.5%
10 | CCCSc1ncc(Cl)c(C(=O)Nc2c(C(=O)c3ccc(F)cc3)oc3ccccc23)n1 | 10.7%
11 | CCOc1ccc(CNC(=O)C2CCCN(S(=O)(=O)N(CC)c3ccc(OCC)cc3)C2)cc1 (stereo not given) | 5.47%
12 | COc1ccc(-n2ncc(C(=O)Nc3ccc4c(c3)OCCO4)c2C2CCN(C(=O)OC(C)(C)C)CC2)cc1 | 1.42%
13 | Cc1cccc(C(=O)Nc2cccc(OCc3cc(=O)n4ccccc4n3)c2)c1 | -7.59%
14 | CCc1cccc(NC(=O)CCS(=O)(=O)c2cc3c4c(c2)CCN4C(=O)CC3)c1 | -1.83%
15 | Cc1c(Cl)cccc1-n1nc(C)c2c(C)cc(=O)n(CC(=O)NCc3ccccc3)c21 | -9.26%
16 | O=S(=O)(c1ccccc1)N1CCN(S(=O)(=O)N2CCCCC2)CC1 | active: 37.8%
17 | COc1cc2c(cc1OC)C(COc1ccccc1OC)N(C(=O)c1ccccc1OC)CC2 (stereo not given) | -14.1%
18 | Cc1cc(C)c(NC(=O)Cn2c(=O)n(Cc3ccccc3)c(=O)c3c(C)c(C(=O)N(C)C)sc32)c(C)c1 | -4.17%
19 | COc1cc2c(=O)c(S(=O)(=O)c3ccccc3)cn(CC(=O)Nc3ccccc3C)c2cc1OC | -4.94%
20 | CCN1CCN(c2ncnc3scc(-c4ccc(C)cc4)c23)CC1 | active: 67.6%

Row | Compound | inhibition
21 | CCOc1ccccc1NC(=O)CN1CCN(S(=O)(=O)c2ccc(Br)cc2)CC1 | -8.96%
22 | CC(=O)c1cccc(NC(=O)c2nc(-c3ccccc3)n(-c3cccc(C)c3)n2)c1 | 21%
23 | CCS(=O)(=O)N1CCc2cc(C(=O)Nc3ccc(OC)cc3OC)ccc21 | 7.68%
24 | CCC1CCCCN1Cc1cn2c(-c3ccc(Br)cc3)nnc2s1 (stereo not given) | 7.09%
25 | O=C(Nc1nc2n(n1)C(c1ccc(F)cc1)C=C(c1ccccc1)N2)c1cccc([N+](=O)[O-])c1 (stereo not given) | 25.2%
26 | COc1c(Cl)cc(Cl)cc1CNCCSc1nnnn1C | -15.3%
27 | CCC(C)NC(=O)CSc1nc2cc3c(cc2c(=O)n1CCCCCC(=O)NCc1ccc(OC)cc1)OCO3 (stereo not given) | 10.1%
28 | Cc1cc(Cl)ccc1NC(=O)c1cc2ccccn2n1 | -7.9%
29 | Cc1ccc(CNC(=O)CSC2=Nc3ccccc3C3=NC(C)C(=O)N23)cc1 (stereo not given) | 16.5%
30 | CCN(CCO)C(=S)Nc1cc(S(=O)(=O)N(C)C)ccc1C | active: 50.6%
31 | CC(=O)Nc1cccc(NC(=O)C(=O)NCCc2csc3nc(-c4ccccc4F)nn23)c1 | 26.3%
32 | O=C(NC1CCN(Cc2ccccc2)CC1)c1ccc(S(=O)(=O)NCc2ccco2)cc1 | active: 35.6%
33 | CCOC(=O)c1ccccc1NC(=O)c1nn(C)c2c1COc1ccccc1-2 | 21.6%
34 | Cc1ccc(OCc2nnc(-c3ccccc3)o2)cc1 | -9.32%
35 | CC(C)CCNC(=O)c1cn(C)c2ccc(S(=O)(=O)N3CCOCC3)cc2c1=O | -7.63%
36 | COCCCN1CCN(C2Cc3ccccc3Sc3ccc(Cl)cc32)CC1 (stereo not given) | active: 107%
37 | COc1ccccc1N1CCN(S(=O)(=O)c2ccc(-c3cnc(C4CC4)o3)cc2)CC1 | 9.72%
38 | COc1cc(OC)c(NC(=O)CCNS(=O)(=O)c2ccc3c(c2)oc(=O)n3C)cc1Cl | -12.1%
39 | CN(C)CC/C=C1/c2ccccc2Sc2ccc(Cl)cc21 | active: 66.3% and active: 103%
40 | COc1ccc(-n2c(CCC(=O)O)ccc2-c2ccccc2)c(OC)c1 | -12.1%

Row | Compound | inhibition
41 | CC(=O)N1CCCc2cc(S(=O)(=O)N(Cc3ccccc3)C(C)C)ccc21 | 2.14%
42 | CCCCc1ccc(NC(=O)CSc2nnc3[nH]c(=O)cc(C)n23)cc1 | 0.483%
43 | CCCN(CCC)C(=O)CSc1nnc2cc(C)c3ccccc3n12 | 3.63%
44 | CCN(CC)CCNC(=O)c1cc2c(=O)oc3ccc(C)cc3c2s1 | 17.1%
45 | CCCN1CCN(CCCNC(=O)c2ccc(CS(=O)c3ccc(OC)cc3)o2)CC1 (stereo not given) | -0.708%
46 | Cc1ccc(NC(=O)Cn2nnc3sc4c(c3c2=O)CCCC4)c(C)c1 | 7.15%
47 | Cc1cc(C)c(Cn2c3ccccc3c3cnn(CC(=O)NCC(C)c4ccccc4)c(=O)c32)c(C)c1 (stereo not given) | -3.36%
48 | O=C(/C=C/c1ccc(Cl)cc1)Nc1nc(-c2cccs2)ns1 | 14.4%
49 | COc1cc(C2c3c(-c4ccccc4O)n[nH]c3C(=O)N2CCO)ccc1OCC(C)C (stereo not given) | -6.21%
50 | COc1ccc(Cc2c(C)nn(-c3nc(C)c(C(=O)Nc4ccc(C)cc4C)s3)c2C)cc1 | 12.8%
51 | COc1ccc(NC(=O)c2oc3ccc(S(=O)(=O)N4CCC5(CC4)OCCO5)cc3c2C)cc1Cl | 3.86%
52 | COc1ccc(Cn2c3nc4ccccc4nc3c3c(=O)n(Cc4ccco4)c(C)nc32)cc1 | active: 33.4%
53 | Cc1cccc(Oc2ccc(NC(=O)CCC(=O)OCC(=O)c3ccc(Br)cc3)cc2)c1C | -17.7%
54 | COc1cccc(C(C(=O)NCc2ccccc2)N(C(=O)Cn2nnc3ccccc32)c2cccc(C(C)=O)c2)c1 (stereo not given) | 9.98%
55 | O=C(NCCCN1CCN(c2ccccc2F)CC1)C1CCCN(S(=O)(=O)c2cnc[nH]2)C1 (stereo not given) | active: 64.7%
56 | Cc1ccccc1CSCCNC(=O)CN(c1ccccc1)S(=O)(=O)N(C)C | -1.04%
57 | COc1ccccc1CNC(=O)c1cc2ccc3ccc(C)[nH]c3c2n1 | 5.38%
58 | COc1ccccc1NC(=O)CNC(c1ccccc1)c1ccccc1 | active: 36%
59 | Cc1cccc(CC(=O)Nc2cccc(-c3nc4cccnc4s3)c2)c1 | 23%
60 | CCN1CCc2c(sc(-n3cccc3)c2C(C)NC(=O)Nc2ccccc2C)C1 (stereo not given) | -0.705%
